Screen size: about 320,000 compounds; about 7,600 (2.4%) were called active. Inconclusive means that the source gave no clear call. Such entries were picked first, then a sample of the others. Calls follow the shape of the dose curve; as a rule, active = well fitted activation curve with a large enough effect; inconclusive = small, poorly fitted or top-dose-only effect; inactive = no such curve, though single readings can be large or run the other way. Potencies beside an inconclusive call are fits to weak or partial responses and may not hold up.
Assay: qHTS Assay for NPC1 Promoter Activators; also: nearly all actives have a fitted effect of over 60% in size;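 as to activation: reporter is driven by a mutant NPC1 promoter; % of control where 0% means no effect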
Details: Huh7 NPC1 promoter luciferase reporter, 24 h; series mostly up to 9.22 µM; activation: at the top concentration
Procedure, shortened: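 NPC1 promoter–luciferase Huh7 cells; 24 h compound; luminescence.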
Potency is read from the fitted curve at half-maximal effect; tags tell the direction and shape of the fitted curve.

Potency, active:
CCOC(=O)c1c(C)[nH]c(C(=O)CSc2nccc(C)n2)c1C 2.82 µM
CCOC(=O)c1cn[nH]c1NC(=S)Nc1ccc(OC)cc1 0.282 µM
O=c1nc(N/N=C/C=C/c2ccccc2)cn[nH]1 0.501 µM
COc1ccc(C(=O)O/N=C(\N)c2ccccn2)cc1[N+](=O)[O-] 2.51 µM
Brc1ccc(/C=N/Nc2ccc3ccccc3n2)cc1 3.55 µM
Nc1ccc2oc3ccc(N)cc3c(=O)c2c1 2.51 µM
COc1ccc(C(=O)Nn2c(SCC(=O)c3ccccc3)nc3ccccc3c2=O)cc1 1.41 µM
CC(C)(C)NC(=O)Cn1nnc(-c2ccccc2Cl)n1 3.98 µM

Potency, inconclusive:
O=C(Nc1cccc(Cl)c1)c1ccc(OC(=S)N2CCOCC2)cc1 0.501 µM [activator, full curve]
CCN(CC)c1ccc(/C=N/NC(=O)c2ccco2)cc1 0.355 µM [activator, partial curve]
Cc1ccc(NC(=O)c2ccc(CSc3ccccn3)cc2)cc1 3.98 µM [activator, single point]
CCN(CC)C(=O)CSC(=Nc1ccccc1F)NC#N 3.98 µM [activator, partial curve]
COc1ccc(-c2c(C)nn(-c3ccccc3)c2N)cc1 2.82 µM [activator, partial curve]
CC(NC(=O)c1ccc(F)cc1)c1ccccc1 (stereo unspecified) 0.794 µM [activator, single point]
O=C(CCN1CCc2ccccc21)c1ccc2c(c1)OCCO2 2.24 µM [activator, partial curve]
Fc1cccc(Cl)c1CSc1nnc(-c2ccncc2)o1 2.51 µM [activator, partial curve]
Cc1ccccc1NC(=O)c1ccc2c(c1)N(C)CCS2 2.82 µM [activator, partial curve]
Cc1ccc(OCCCSc2ncccn2)cc1C 3.16 µM [activator, single point]
O=C(N=C1c2ccccc2CN1c1ccc(F)c(Cl)c1)c1cccnc1Cl 3.55 µM [activator, partial curve]
CCCc1cc(=O)oc2cc(OCc3ccc(C(=O)O)cc3)ccc12 2.24 µM [activator, partial curve]
CCCCCCOC(=O)c1ccc(N)cc1 4.47 µM [activator, single point]
C/C(=N/OCC(=O)Nc1ccccc1)c1cccs1 5.01 µM [activator, single point]
COc1cccc(CNc2cc(C)ccn2)c1O 6.31 µM [activator, single point]
COC(=O)c1ccc(COc2ccc(C)cc2[N+](=O)[O-])o1 3.55 µM [activator, partial curve]
C/C(=N\NC(=O)c1ccn[nH]1)c1cn(C)nc1C 5.01 µM [activator, single point]
Cc1cc2sc3nc(=O)n(-c4ccccc4)c(=O)n3c2cc1C 1.26 µM [activator, partial curve]
CC(/C=N/NC(=O)c1cccnc1)=C\c1ccccc1 3.16 µM [activator, partial curve]
Nc1ccccc1SCc1csc(-c2ccc(Cl)cc2)n1 3.98 µM [activator, single point]
COc1cccc(NC(=O)c2cccs2)c1 2.24 µM [activator, partial curve]
Cc1cc(Cl)ccc1OCCCC(=O)N1CCCCC1 2.82 µM [activator, partial curve]
COc1ccc(C(=O)N/N=C/c2ccccc2OC(=O)c2ccccc2)cc1 0.708 µM [activator, partial curve]
N#C/C(=C\c1ccccc1)c1ccccn1 2.82 µM [activator, partial curve]
O=[N+]([O-])c1ccc2c(c1)nc1n2CCN(C2CCCCC2)C1 2.51 µM [activator, partial curve]
COc1ccc2nc(NC(=O)c3cccc(-c4cc5ccccc5oc4=O)c3)sc2c1 3.55 µM [activator, single point]
Cc1ccc(C(=O)/C=C/c2cn(CN3CCN(C)CC3)c3ccccc23)cc1 3.16 µM [activator, partial curve]
O=C(CSc1nnc(-c2ccc(OC(F)F)cc2)o1)N1CCOCC1 3.16 µM [activator, partial curve]
COc1ccc(-c2cn3cc(C(=O)NN)ccc3n2)cc1 0.398 µM [activator, full curve]
CCCc1ccc(C(=O)NC(=O)c2ccccc2O)cc1 0.316 µM [activator, partial curve]
O=S(=O)(c1cccs1)N1CCN(c2ncccn2)CC1 5.62 µM [activator, single point]
COC(=O)c1cnn(-c2nc(-c3ccccc3)cs2)c1N 3.98 µM [activator, single point]
O=C(/C=C/c1ccccc1)NC(=O)c1ccccc1O 3.55 µM [activator, partial curve]
Cc1cccc(NC(=O)NC(=O)c2ccccc2)n1 3.98 µM [activator, single point]
O=C(NCC1CC1)Nc1ccc(Cl)cc1 3.98 µM [activator, single point]
CCCN=C(C)c1c(-c2ccccc2)[nH]n(-c2nc3ccccc3s2)c1=O 2 µM [activator, partial curve]
CN(C)/C=C/C(=O)c1ccc(-c2ccc(Cl)cc2Cl)o1 5.01 µM [activator, single point]
COc1nc(-c2ccccc2)ccc1-c1noc(-c2ccco2)n1 3.55 µM [activator, single point]
O=C(c1ccco1)n1nc(-c2ccccc2)nc1SCc1ccccc1 2.82 µM [activator, partial curve]
O=C(Nc1cccc(-c2cn3ccccc3n2)c1)c1cc2ccccc2oc1=O 3.98 µM [activator, single point]
Cc1cc(NC(=O)c2ccoc2C)ccc1Br 2.82 µM [activator, partial curve]
COc1ccc(-c2noc(Cc3cccs3)n2)cc1 3.55 µM [activator, partial curve]
O=C(NNC(=O)c1ccccc1O)c1cccc(Br)c1 3.16 µM [activator, single point]
CCN1C(=O)/C(=C/C=C2\C=CN(CC)c3ccccc32)SC1=S 3.55 µM [activator, single point]
O=C(NCCC1=CCCCC1)C1COc2ccccc2O1 (stereo unspecified) 5.62 µM [activator, single point]
CCOc1ccc(OCc2ccc(C(=O)NCc3ccncc3)o2)cc1 3.16 µM [activator, single point]
CCOc1ccc(C(=O)N(CC)CC(=O)Nc2ccc3c(c2)OCCO3)cc1 5.62 µM [activator, single point]
CC(=O)c1c(C)[nH]c(C(=O)Nc2nccs2)c1C 2.24 µM [activator, partial curve]

activation, inactive:
Cc1ccc(N=CC2=C(O)CC(c3ccco3)CC2=O)cc1 (stereo unspecified) 0.849%
O=C(CN1C(=O)NC2(CCCCCC2)C1=O)NCCc1ccccc1 6.28%
NC(=O)NC(c1ccccc1)c1cccc2ccccc12 (stereo unspecified) -1.07%
CC(C)CSc1ncnc2c1oc1nc3c(cc12)COC(C)(C)C3 13.6%
COc1ccc(CNC(=O)CN2C(=O)CSc3ccc(S(=O)(=O)N4CCOCC4)cc32)c(OC)c1 5.36%
O=C(Nc1ccccc1)c1ccc(Br)o1 16%
CC(=O)N1CCN(CC(=O)Nc2ccccc2C(=O)NCc2ccc(C)cc2)CC1 -4.34%
NC(=O)C1CCN(C(=O)CN(C2CCCCC2)S(=O)(=O)c2ccc(F)cc2)CC1 1.37%
CCn1c(SCC(=O)Nc2oc(-c3ccccc3)c(-c3ccccc3)c2C#N)nnc1-c1ccco1 -1.6%
O=C(Nc1cccnc1)c1sc(Nc2ccccc2)nc1-c1ccccc1 6.15%
O=C(CNC(=O)C1CCCCC1)NCc1ccco1 -8.32%
CC(C)c1c(C(=O)N/N=C/C2CC=CCC2)nnn1-c1nonc1N (stereo unspecified) -1.05%
COc1ccc(CCNC(=O)c2ccc(CNS(=O)(=O)c3cc(C)ccc3C)cc2)cc1OC -2.42%
COc1ccc(NS(=O)(=O)c2cc(OCC(N)=O)c(C)cc2Cl)cc1 -1.57%
CCC1Sc2ccc(S(=O)(=O)CCC(=O)Nc3c(Cl)cc(OC)cc3OC)cc2NC1=O (stereo unspecified) -1.13%
CCCN(C(=O)Cc1nc(N)n[nH]1)C1(C(=O)Nc2ccccc2C)CCCCC1 -2.22%
CC(=O)Nc1ccc2c(c1)OCO2 -3.19%
O=C(C1=NN(c2ccccc2)C(=O)CC1)N1CCc2ccccc2C1 -2.36%
CC1(C)CC(=O)C2=C(C1)N(CC1CCCO1)C(=O)C2(NC(=O)c1cccnc1)C(F)(F)F (stereo unspecified) -0.0114%
Cc1cc(C)c(-n2c(SCc3nc4ccccc4s3)n[nH]c2=O)c(C)c1 -8.43%
